# Reference: the supplement of paper PMC8728848
# The other results are listed elsewhere or left out.
# B1: OrysaEULS2 (Oryza sativa) (protein)
# chain: MVYCRANPNYAMTARNGAVVLAPANPKDEYQHWIKDMRWSTSIKDEEGYPAFALVNKATGQAIKHSLGQSHPVRLVPYNPEVMDESVLWTESRDVGNGFRCIRMVNNIYLNFDAFHGDKYHGGVRDGTDIVLWKWCEGDNQRWKIQPYYILEQKLISEEDLNSAVDHHHHHH
# Assays:
# Experiment in all cases: glycan array binding signal (z-score within array); higher = stronger binding
# Conditions in all cases: glycan notation: IUPAC condensed, linker removed
# Gal3S(b1-3)GalNAc = target: Gal3S(b1-3)GalNAc
# Summary of the method: (§1)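 Negative Z-scores can be read as non-binding. The Z-score is calculated within each array and then averaged across arrays of one protein sequence at different concentrations or buffers and across linkers. Arrays, 3228 in all, were curated from the Consortium for Functional Glycomics database and kept only where the protein sequence was available.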
# Gal3S(b1-3)GlcNAc = target: Gal3S(b1-3)GlcNAc
# Summary of the method: as §1
# [1] = target: Gal3S(b1-3)[Fuc(a1-4)]GlcNAc
# Summary of the method: as §1
# Gal3S(b1-4)Glc = target: Gal3S(b1-4)Glc
# Summary of the method: as §1
# Gal3S(b1-4)Glc6S = target: Gal3S(b1-4)Glc6S
# Summary of the method: as §1
# Gal3S(b1-4)GlcNAc = target: Gal3S(b1-4)GlcNAc
# Summary of the method: as §1
# Gal3S(b1-4)GlcNAc6S = target: Gal3S(b1-4)GlcNAc6S
# Summary of the method: as §1
# [2] = target: Gal3S(b1-4)[Fuc(a1-3)]Glc
# Summary of the method: as §1
# [3] = target: Gal3S(b1-4)[Fuc(a1-3)]Glc6S
# Summary of the method: as §1
# [4] = target: Gal3S(b1-4)[Fuc(a1-3)]GlcNAc
# Summary of the method: as §1
# [5] = target: Gal3S(b1-4)[Fuc(a1-3)]GlcNAc6S
# Summary of the method: as §1
# Gal3S4S(b1-4)GlcNAc = target: Gal3S4S(b1-4)GlcNAc
# Summary of the method: as §1
# Gal3S6S(b1-4)GlcNAc = target: Gal3S6S(b1-4)GlcNAc
# Summary of the method: as §1
# Gal3S6S(b1-4)GlcNAc6S = target: Gal3S6S(b1-4)GlcNAc6S
# Summary of the method: as §1
# Gal4S(b1-4)GlcNAc = target: Gal4S(b1-4)GlcNAc
# Summary of the method: as §1
# Gal4S6S(b1-4)GlcNAc = target: Gal4S6S(b1-4)GlcNAc
# Summary of the method: as §1
# Gal6P(b1-4)GlcNAc = target: Gal6P(b1-4)GlcNAc
# Summary of the method: as §1
# Gal6S(b1-3)GlcNAc = target: Gal6S(b1-3)GlcNAc
# Summary of the method: as §1
# Gal6S(b1-3)GlcNAc6S = target: Gal6S(b1-3)GlcNAc6S
# Summary of the method: as §1
# Gal6S(b1-4)Glc = target: Gal6S(b1-4)Glc
# Summary of the method: as §1
# Gal6S(b1-4)Glc6S = target: Gal6S(b1-4)Glc6S
# Summary of the method: as §1
# Gal6S(b1-4)GlcNAc = target: Gal6S(b1-4)GlcNAc
# Summary of the method: as §1
# Gal6S(b1-4)GlcNAc6S = target: Gal6S(b1-4)GlcNAc6S
# Summary of the method: as §1
# GalNAc(a1-3)Gal = target: GalNAc(a1-3)Gal
# Summary of the method: as §1
# GalNAc(a1-3)GalNAc = target: GalNAc(a1-3)GalNAc
# Summary of the method: as §1
# [6] = target: GalNAc(a1-3)GalNAc(b1-3)Gal(a1-4)Gal(b1-4)Glc
# Summary of the method: as §1
# [7] = target: GalNAc(a1-3)GalNAc(b1-3)Gal(a1-4)Gal(b1-4)GlcNAc
# Summary of the method: as §1
# GalNAc(b1-3)Gal = target: GalNAc(b1-3)Gal
# Summary of the method: as §1
# [8] = target: GalNAc(b1-3)Gal(a1-4)Gal(b1-4)GlcNAc
# Summary of the method: as §1
# [9] = target: GalNAc(b1-3)Gal(a1-4)Gal(b1-4)GlcNAc(b1-3)Gal(b1-4)Glc
# Summary of the method: as §1
# [10] = target: GalNAc(b1-3)Gal(a1-6)Gal(b1-4)Glc
# Summary of the method: as §1
# GalNAc(b1-3)GalNAc = target: GalNAc(b1-3)GalNAc
# Summary of the method: as §1
# GalNAc(b1-3)GlcNAc = target: GalNAc(b1-3)GlcNAc
# Summary of the method: as §1
# GalNAc(b1-4)Gal(b1-4)Glc = target: GalNAc(b1-4)Gal(b1-4)Glc
# Summary of the method: as §1
# GalNAc(b1-4)GlcNAc = target: GalNAc(b1-4)GlcNAc
# Summary of the method: as §1
# [11] = target: GalNAc(b1-4)GlcNAc(b1-2)Man
# Summary of the method: as §1
# [12] = target: GalNAc(b1-4)GlcNAc(b1-2)Man(a1-3)[GalNAc(b1-4)GlcNAc(b1-2)Man(a1-6)]Man(b1-4)GlcNAc(b1-4)GlcNAc
# Summary of the method: as §1
# [13] = target: GalNAc(b1-4)GlcNAc(b1-3)GalNAc(b1-4)GlcNAc
# Summary of the method: as §1
# GalNAc(b1-4)GlcNAc6S = target: GalNAc(b1-4)GlcNAc6S
# Summary of the method: as §1
# GalNAc(b1-6)GalNAc = target: GalNAc(b1-6)GalNAc
# Summary of the method: as §1
# GalNAc3S(b1-4)GlcNAc = target: GalNAc3S(b1-4)GlcNAc
# Summary of the method: as §1
# GalNAc3S(b1-4)GlcNAc3S = target: GalNAc3S(b1-4)GlcNAc3S
# Summary of the method: as §1
# [14] = target: GalNAc3S(b1-4)[Fuc(a1-3)]GlcNAc
# Summary of the method: as §1
# GalNAc4S6S(b1-4)GlcNAc = target: GalNAc4S6S(b1-4)GlcNAc
# Summary of the method: as §1
# GalNAc6S(b1-4)GlcNAc = target: GalNAc6S(b1-4)GlcNAc
# Summary of the method: as §1
binder,measurement,setting,value
B1,glycan array binding signal (z-score),Gal3S(b1-3)GalNAc,-0.186
same,glycan array binding signal (z-score),Gal3S(b1-3)GlcNAc,-0.207
same,glycan array binding signal (z-score),[1],-0.199
same,glycan array binding signal (z-score),Gal3S(b1-4)Glc,-0.179
same,glycan array binding signal (z-score),Gal3S(b1-4)Glc6S,-0.146
same,glycan array binding signal (z-score),Gal3S(b1-4)GlcNAc,-0.172
same,glycan array binding signal (z-score),Gal3S(b1-4)GlcNAc6S,-0.168
same,glycan array binding signal (z-score),[2],-0.168
same,glycan array binding signal (z-score),[3],-0.183
same,glycan array binding signal (z-score),[4],-0.254
same,glycan array binding signal (z-score),[5],0.472
same,glycan array binding signal (z-score),Gal3S4S(b1-4)GlcNAc,-0.193
same,glycan array binding signal (z-score),Gal3S6S(b1-4)GlcNAc,-0.187
same,glycan array binding signal (z-score),Gal3S6S(b1-4)GlcNAc6S,-0.187
same,glycan array binding signal (z-score),Gal4S(b1-4)GlcNAc,-0.227
same,glycan array binding signal (z-score),Gal4S6S(b1-4)GlcNAc,-0.198
same,glycan array binding signal (z-score),Gal6P(b1-4)GlcNAc,-0.204
same,glycan array binding signal (z-score),Gal6S(b1-3)GlcNAc,-0.164
same,glycan array binding signal (z-score),Gal6S(b1-3)GlcNAc6S,-0.16
same,glycan array binding signal (z-score),Gal6S(b1-4)Glc,-0.2
same,glycan array binding signal (z-score),Gal6S(b1-4)Glc6S,-0.204
same,glycan array binding signal (z-score),Gal6S(b1-4)GlcNAc,-0.157
same,glycan array binding signal (z-score),Gal6S(b1-4)GlcNAc6S,-0.205
same,glycan array binding signal (z-score),GalNAc(a1-3)Gal,-0.2
same,glycan array binding signal (z-score),GalNAc(a1-3)GalNAc,-0.213
same,glycan array binding signal (z-score),[6],-0.208
same,glycan array binding signal (z-score),[7],-0.185
same,glycan array binding signal (z-score),GalNAc(b1-3)Gal,-0.182
same,glycan array binding signal (z-score),[8],-0.182
same,glycan array binding signal (z-score),[9],-0.135
same,glycan array binding signal (z-score),[10],-0.202
same,glycan array binding signal (z-score),GalNAc(b1-3)GalNAc,-0.199
same,glycan array binding signal (z-score),GalNAc(b1-3)GlcNAc,-0.242
same,glycan array binding signal (z-score),GalNAc(b1-4)Gal(b1-4)Glc,-0.178
same,glycan array binding signal (z-score),GalNAc(b1-4)GlcNAc,-0.204
same,glycan array binding signal (z-score),[11],-0.257
same,glycan array binding signal (z-score),[12],0.022
same,glycan array binding signal (z-score),[13],-0.219
same,glycan array binding signal (z-score),GalNAc(b1-4)GlcNAc6S,-0.166
same,glycan array binding signal (z-score),GalNAc(b1-6)GalNAc,-0.168
same,glycan array binding signal (z-score),GalNAc3S(b1-4)GlcNAc,-0.181
same,glycan array binding signal (z-score),GalNAc3S(b1-4)GlcNAc3S,-0.189
same,glycan array binding signal (z-score),[14],-0.225
same,glycan array binding signal (z-score),GalNAc4S6S(b1-4)GlcNAc,-0.215
same,glycan array binding signal (z-score),GalNAc6S(b1-4)GlcNAc,-0.187
